Reference: the supplement of paper PMC10300432
Recombinant human monoclonal antibodies (heavy:light variable regions). ELISA EC50 on the named antigen, from 10 µg/ml down; IC50 against spike pseudovirus on HT1080-ACE2 cells, 48 h; lower = stronger. Calls: IC50 above 1,000 ng/ml = non-neutralizing; EC50 above 1,000 ng/ml = non-binder.

B1: C5053 (protein)
chain 1: QVQLVQSGAEVKKPGSSVKVSCKASGGPFNIHGISWVRQAPGQGPEWMGGIIPITGTANYAQKFKGRVTITADTSTSTAYMELNSLRSEDTAVYYCARDGRFHYGSSGYYYIAFDVWGPGTMVTVSS
chain 2: DIQMTQSPSSLSASVGDRVTITCRASQNITRHLNWYQQKPGKAPQILIYGASNLQVGVPSRFSGSGSWTDFTLTISSLQLEDFATYYCQQSYNAPRTFGQGTKLEIK
B2: C5307 (protein)
chain 1: QVQLVESGGGVVQPGRSLRLSCAASGFTFSNYDIHWVRQAPGKGLEWVAVISSDGSSKFYADSVKGRFTISRDNSKNTLFLQMNSLRAEDTAVYYCAKDYGDSRLDWFDTWGQGTLVTVSS
chain 2: DIQMTQSPSSLSASVGDRVTITCRASQTISSYLNWYQQKPGKAPKLLIYAASSLHSAVPSRFSGSGSGTDFTLTISGLQPEDFATYYCQQSYSSPPWTFGQGTKVEIK
B3: C5308 (protein)
chain 1: EVQLVQSGAEVKKPGESLKISCKGSGYRLIDHWIGWVRQMPGKGLDWMGIIYPGDSDSRYSPSFQGQVTFSVDRSTSTAYLQWSSLKVSDTAVYYCARSLDRSPFEPFDMWGQGTVVTVTS
chain 2: EIVLTQSPGTLSLSPGERATLSCRASQSISSTYFAWYQQKPGQAPRLLIYGASSRATGIPDRFSGSGSGTDFTLTISRLEPEDFAVYYCQQYGSPWTFGQGTKVEI
B4: C5309 (protein)
chain 1: QLQLQESGPGLVKPSETLSLTCSVSGVSVRSHNFYWGWIRQPPGKGLEWIGSASYSGSTHYNPSLKSRVTISVDTSKSQFSLKLSSVTAADTAVYYCARQTYYYDRSGRPHHDLDHWGQGTLVIVSS
chain 2: DIQMTQSPSSLSASVGDRVTITCQASQDISNYLKWYQQKPGKAPKLLIYDASNLETGVPSRFSGSGSGTDFTFTISSLQPEDIATYYCQQFDNLPLTFGGGTKVEI
B5: C5310 (protein)
chain 1: EVQLVESGGGLVKPGGSLRLSCAASGFTFSSYTMNWVRQAPGKGLEWVSSINSLSTYIVYADSLKGRFTISRDNAKNSLYLQMNSLRAEDTALYYCARRRGGDDYVRFFDLWGRGTLVTVSS
chain 2: DIVMTQTPLSLPVTPGEPASISCRSSQSLLDSDDGNTFLDWYVQKPGQSPQLLIYTLSYRASGVPDRFSGSGSGTDFTLTISRVEAEDVGVYYCMQRIEFPLTFGQGTRLEIK
B6: C5311 (protein)
chain 1: QVQLVESGGGVVQPGRSLRLSCAASGFTFSRYDMHWVRQAPGEGLEWVAAISFDGDNVYYSDSVKGRFTISRDNSKNTLYLQMSSLKAEDTSLYYCAKVGPSYASGWFEGYYFDYWGQGTLVTVSS
chain 2: DIQMTQSPSSLSASVGDTVTITCRTNQSITKYLNWYQQKTGKAPKLLIYAASSLQSGVPSRFSGSGSGTAFTLTINSLQPADFATYYCQLSYGSPTWTFGQGTKVEIK
B7: C5312 (protein)
chain 1: QVQLVQSGAEVKKPGSSVKVSCRASGGTFSNSAISWVRQAPGQGLEWMGGIIPFFGAAKNAQKFQGRVTITTDESTSITYMELSSLRSDDTAMYYCASGGYFDNVWGTFVARYDFWGQGTLVTVSS
chain 2: QSALTQPASVSGSPGQSITISCTGISSDVGGYNYVSWYQQHPGNAPQLIIYDVSNRPSGVSNRFSGSKSGDTASLTISGLQADDEADYFCSSYTSSTTFYVFGTGTKVTVL
B8: C5313 (protein)
chain 1: QVQLQESGPGLVKPSQTLSLTCTVSGRSINSGGYYWSWIRQHPGKGLEWIGYIYYSGSTYYNPSLKSRVTISVDTSKNQFSLKLSSVTAADTAVYYCAKSWVPYYFDYWGQGTLVTVSS
chain 2: QSVLTQPPSVSGAPGQRVTISCTGSSSNIGAGFDVHWYQQLPGTAPKLLIYGNNNRPSGVPDRFSGSKSGTSASLAITGLQAEDEADYYCQSYDSNLSSPVVFGGGTKLTVL

What was measured:
[1] = target: SARS-CoV-2 Omicron BA.1 spike pseudovirus; assay: pseudovirus neutralization IC50; higher = weaker neutralization
Method: (§1)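 Single-round luciferase reporter pseudovirus mixed with antibody dilutions and put on HT1080-ACE2 clone 14 cells for 48 h; signal relative to no-antibody wells, four-parameter fit.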

[2] = target: SARS-CoV-2 Omicron BA.4/5 spike pseudovirus; assay: as above
Method: as §1

[3] = target: SARS-CoV-2 Wuhan-Hu-1 spike pseudovirus; assay: as above
Method: as §1

[4] = target: SARS-CoV-2 Wuhan-Hu-1 spike receptor-binding domain; assay: ELISA binding EC50; higher = weaker binding; ELISA of recombinant human antibody on coated antigen, from 10 µg/ml in fourfold dilutions; four-parameter fit.

Row | Binder | pseudovirus neutralization IC50 [1] [µg/mL] | pseudovirus neutralization IC50 [2] [µg/mL] | pseudovirus neutralization IC50 [3] [µg/mL] | ELISA binding EC50 [4] [µg/mL]
1 | B1 | 0.047 | > 1 | 0.000747 | 0.00348
2 | B2 | > 1 | 0.957 | 0.657 | 0.00423
3 | B3 | > 1 | > 1 | 0.0218 | 0.00428
4 | B4 | 0.0922 | 0.968 | 0.00698 | 0.00387
5 | B5 | > 1 | > 1 | > 1 | 0.00784
6 | B6 | 0.743 | > 1 | 0.434 | 0.00466
7 | B7 | 0.00031 | > 1 | 0.00178 | 0.00414
8 | B8 | 0.101 | > 1 | 0.611 | 0.00524
